Data reported in PubChem BioAssay AID2100 (National Center for Advancing Translational Sciences (NCATS), 2009).
Out of some 300,000 compounds screened, about 1,200 (0.4%) were called active. The shares of active, inactive and inconclusive entries below differ from those in the screen. The call rests on the fitted dose curve; in most records, active means well fitted inhibition curve with a large enough effect; inconclusive means small, poorly fitted or top-dose-only effect, or another doubt; inactive means no such curve, though single readings can be large or run the other way. Potencies beside an inconclusive call are fits to weak or partial responses and may not hold up.
Potency means the concentration at half of the fitted maximal effect.

These compounds were tested against Lysosomal alpha-glucosidase (Homo sapiens) (UniProt P10253) (assay: qHTS Assay for Inhibitors and Activators of Human alpha-Glucosidase Cleavage of Glycogen). Conditions: recombinant GAA, glycogen substrate, Amplex Red glucose oxidase fluorescence; series mostly up to 76.4 µM.
Summary of the method: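 Recombinant human alpha-glucosidase (4 nM final) hydrolysed bovine liver glycogen (30 ug) for 40 min at 37 C in pH 5.0 citrate/phosphate with 0.01% Tween-20. Released glucose detected by glucose oxidase/Amplex Red, Ex 573/Em 610 nm. Compounds up to 77 uM; AC50 from Hill fits.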
`CCN(CC)c1ccc(NC(=S)NCC2CCCO2)cc1` (stereo unspecified) was tested, and the Potency was inconclusive: 44.7 µM [inhibitor, single point].
`COC(=O)c1ccc(COc2ccc(C3C4=C(CCCC4=O)Nc4onc(C)c43)cc2)cc1` (stereo unspecified) was tested, and the Potency was inconclusive: 15.7 µM [inhibitor, partial curve].
`Cc1cc(=O)n(CC(C)C)c(O)c1C#N` was tested, and the Potency was “inactive”.
`O=C(NNc1nc2c(F)cccc2s1)c1ccc(F)cc1` was tested, and the Potency was inconclusive: 28 µM [inhibitor, single point].
`COc1ccc(-c2nc(N3CCOCC3)nc3n[nH]c(N)c23)cc1` was tested, and the Potency was inconclusive: 31.6 µM [inhibitor, partial curve].
`CCOc1ccc(Nc2nc(Cc3nnc(SCC(=O)NCc4ccco4)n3CC)cs2)cc1` was tested, and the Potency was active: 17.6 µM.
For `Cn1c(CC2Sc3ccccc3NC2=O)nnc1SCC(=O)c1ccc(Cl)cc1` (stereo unspecified), the Potency was inconclusive: 56.2 µM [inhibitor, single point].
For `O=C(NC(=S)Nc1ccccc1N1CCCC1)c1ccco1`, the Potency was inconclusive: 39.5 µM [inhibitor, single point].
`CCOc1ccc(-n2c(SCC(=O)OC)nc3sc4c(c3c2=O)CCN(C)C4)cc1` was tested, and the Potency was inconclusive: 50.1 µM [activator, single point].
For `Cc1ccc(N2CC(C(=O)NCc3ccc(C)n3C)CC2=O)cc1` (stereo unspecified), the Potency was inconclusive: 39.8 µM [activator, partial curve].
`O=C(O)c1ccc(N/N=C2/CCCc3ccccc32)cc1` was tested, and the Potency was inconclusive: 10 µM [inhibitor, full curve, poor fit].
`CN1CCc2c(sc3c2C(=O)NC(c2cn(Cc4ccccc4)c4ccccc24)N3)C1` (stereo unspecified) was tested, and the Potency was inconclusive: 22.4 µM [activator, partial curve].
In the case of `Cc1cccc(-c2nc(C#N)c(NCc3ccco3)o2)c1`, the Potency is reported as inconclusive: 7.94 µM [inhibitor, full curve].
In the case of `Cn1c(-c2ccc3c(c2)OCO3)cnc1NCc1ccccc1Cl`, the Potency is reported as inconclusive: 35.5 µM [inhibitor, partial curve].
In the case of `O=C(NNc1ccccn1)C(=O)NNS(=O)(=O)c1ccc(Cl)cc1`, the Potency is reported as active: 3.16 µM.
`CC(C)C1Nc2ccc(C(=O)NC3CCCCC3)cc2NC1=O` (stereo unspecified) was tested, and the Potency was inconclusive: 8.91 µM [inhibitor, full curve].
In the case of `CC(C)S(=O)(=O)c1csc(C(=O)NN)c1Cl`, the Potency is reported as inconclusive: 50.1 µM [inhibitor, single point].
With `CC1=NNC(=O)C1C(c1ccccc1)C1C(=O)NN=C1C` (stereo unspecified) the Potency was active: 12.6 µM.
`Cc1ccccc1C(=O)NC1(C(F)(F)F)C(=O)Nc2c1c(=O)[nH]c(=O)n2-c1ccc(F)cc1` (stereo unspecified) was tested, and the Potency was “inactive”.
`Cc1noc(/C=C/c2cccs2)c1S(=O)(=O)N1CCC(C(=O)NCc2ccccc2Cl)CC1` was tested, and the Potency was “inactive”.
In the case of `COc1cc(C2N=C(c3ccccc3)NO2)cc(Br)c1O` (stereo unspecified), the Potency is reported as inconclusive: 31.6 µM [inhibitor, partial curve].
With `Cc1ccc(/C=N/Nc2ncc(Cl)cc2Cl)s1` the Potency was inconclusive: 11.1 µM [inhibitor, partial curve].
With `O=C1Cc2ccccc2C(=O)N1c1ccc(F)cc1Cl` the Potency was inconclusive: 50.1 µM [inhibitor, single point].
For `NNC(=O)c1oc2ccccc2c1-n1cccc1`, the Potency was inconclusive: 35.5 µM [inhibitor, partial curve].
For `S=C(NNc1nc(Nc2ccccc2)nc(N2CCCCC2)n1)NC1CCCCC1`, the Potency was inconclusive: 35.5 µM [inhibitor, single point].
`CCN1CC=C2C(C#N)=C(N)C(C#N)(C#N)[C@H](c3ccoc3)[C@H]2C1` was tested, and the Potency was inconclusive: 39.8 µM [activator, single point].
With `COc1ccc(CC(=O)N/N=C(\C)CC(=O)Nc2ccc(N(C)C)cc2)cc1` the Potency was inconclusive: 14.1 µM [inhibitor, full curve, poor fit].
`COc1cc(-c2nc3nc(C)cc(C)n3c2Nc2ccc(Cl)cc2)ccc1O` was tested, and the Potency was inconclusive: 3.98 µM [inhibitor, full curve].
With `CCOC(=O)Nc1ccc2c(c1)Nc1ccccc1S2` the Potency was active: 14 µM.
For `COC(=O)C1=C(C)Nc2c(c(=O)n(C)c(=O)n2C)C1c1ccc(C)cc1` (stereo unspecified), the Potency was inconclusive: 31.6 µM [inhibitor, single point].
For `COC(=O)c1cccc(-n2c(CCC(=O)O)ccc2-c2cccs2)c1`, the Potency was “inactive”.
For `CC(=O)N1CCc2nc3sc(C(=O)Nc4ccc(Cl)cc4F)c(N)c3c(C(F)(F)F)c2C1`, the Potency was “inactive”.
For `O=C(Nc1cccs1)Nc1ccc(Br)cc1F`, the Potency was inconclusive: 11.2 µM [inhibitor, partial curve, poor fit].
With `COc1ccc(NC(=O)c2cc(-c3ccc(C)o3)nc3ccccc23)cc1OC` the Potency was “inactive”.
For `CCCc1cc(SCC(=O)Nc2c(C)n(C)n(-c3ccccc3)c2=O)n2c(nc3ccccc32)c1C#N`, the Potency was “inactive”.
In the case of `Oc1ccc(Nc2nc(-c3ccccc3O)nc3ccccc23)cc1`, the Potency is reported as inconclusive: 28.2 µM [inhibitor, single point].
With `C/C(=N\Nc1ccc(Cl)c(C(=O)O)c1)c1cccc([N+](=O)[O-])c1` the Potency was inconclusive: 35.5 µM [inhibitor, partial curve].
With `Cc1nc(-c2ccccc2)sc1C(=O)NN` the Potency was inconclusive: 28.2 µM [inhibitor, partial curve].
For `O=C(NNC1CC(=O)N(c2ccc(Br)cc2)C1=O)c1cccs1` (stereo unspecified), the Potency was inconclusive: 39.8 µM [inhibitor, single point].
For `CCC(COC(C)=O)Nc1nc2c([nH]1)c(=O)n(C)c(=O)n2C` (stereo unspecified), the Potency was inconclusive: 10 µM [inhibitor, partial curve].
For `O=C(O)c1cc(NCc2ccc3c(c2)OCO3)ccc1N1CCOCC1`, the Potency was active: 4.97 µM.
`COc1ccc(N=Nc2c(N)n[nH]c2N)cc1` was tested, and the Potency was inconclusive: 22.4 µM [inhibitor, partial curve].
With `Cc1sc2c(c1C)CN(C(C)(C)C)CN2C(=O)c1ccccc1` the Potency was inconclusive: 14 µM [inhibitor, partial curve].
In the case of `COc1ccc(Nc2ccc(OC)cc2)cc1`, the Potency is reported as inconclusive: 35.5 µM [inhibitor, single point].
With `COc1ccc(CC(=O)Nc2ccc(S(=O)(=O)Nc3nccs3)cc2)cc1` the Potency was “inactive”.
With `O=C(Nc1cccc(N2CCCC2)c1)c1cccs1` the Potency was inconclusive: 31.6 µM [inhibitor, single point].
`O=C1CC(=O)N(c2cccc(F)c2)N1` was tested, and the Potency was inconclusive: 11.2 µM [inhibitor, full curve].
`Cc1no[n+]([O-])c1COc1cccc(/C=N/Nc2nncn2N)c1` was tested, and the Potency was inconclusive: 50.1 µM [inhibitor, single point].
With `COc1ccccc1/C=C/c1nc(C#N)c(NCC(C)C)o1` the Potency was inconclusive: 31.6 µM [inhibitor, single point].
In the case of `COc1ccccc1CNc1ncnc2c1nnn2Cc1ccccc1`, the Potency is reported as “inactive”.
For `N#CCCn1nc(-c2ccccc2)cc1Nc1ccccc1NC(=O)C(F)(F)F`, the Potency was inconclusive: 10 µM [inhibitor, full curve].
In the case of `CC(C)c1cc(C(C)C)c(S(=O)(=O)NNC(=O)c2ccncc2)c(C(C)C)c1`, the Potency is reported as inconclusive: 39.8 µM [inhibitor, partial curve].
`CCOC(=O)C(NC(=O)c1ccc(F)cc1)(Nc1sc2c(c1C(N)=O)CCC2)C(F)(F)F` (stereo unspecified) was tested, and the Potency was inconclusive: 28.2 µM [inhibitor, single point].
In the case of `Oc1ccc2[nH]ccc2c1`, the Potency is reported as active: 14.1 µM.
`COc1cc(CNn2cn[nH]c2=S)cc(Br)c1OCc1ccccc1F` was tested, and the Potency was inconclusive: 56.2 µM [inhibitor, partial curve].
`NS(=O)(=O)c1ccc(NNC(=O)c2sccc2Cl)cc1` was tested, and the Potency was inconclusive: 14.1 µM [inhibitor, partial curve].
In the case of `CCN1CCN(C(=S)Nc2ccc3nc4n(c(=O)c3c2)CCCCC4)CC1`, the Potency is reported as inconclusive: 39.8 µM [inhibitor, single point].
In the case of `CC(C)(C)c1nnc(N/N=C/c2ccc(O)cc2)n(N)c1=O`, the Potency is reported as inconclusive: 7.88 µM [inhibitor, full curve].
With `CNC(=S)N(CCc1ccc(OC)c(OC)c1)C1CC(=O)N(c2ccccc2)C1=O` (stereo unspecified) the Potency was inconclusive: 22.4 µM [inhibitor, single point].
With `CCN(CC)c1ccc(/C=N/n2c(-c3ccccc3Br)n[nH]c2=S)cc1` the Potency was inconclusive: 28.2 µM [inhibitor, single point].
With `O=C(/C=C/Nc1ccccc1O)c1ccco1` the Potency was active: 15.7 µM.
In the case of `Nc1nc(Nc2ccccc2)n[nH]1`, the Potency is reported as inconclusive: 3.52 µM [inhibitor, full curve].
For `COc1ccc(C(=O)Nc2oc(-c3ccccc3)c(-c3ccccc3)c2C#N)cc1`, the Potency was inconclusive: 28.2 µM [inhibitor, single point].
`CC1CN(C(=O)c2cc3cc(Br)ccc3[nH]2)CC(C)O1` (stereo unspecified) was tested, and the Potency was “inactive”.
With `O=c1cc(-c2ccc(C3CCCCC3)cc2)[nH][nH]1` the Potency was active: 15.8 µM.
With `CC(C)(C)c1ccccc1NC(=S)NCc1ccccc1` the Potency was inconclusive: 25.1 µM [inhibitor, partial curve].
With `Cc1ccc(C2=NNC(C(O)C(O)C(O)C(C)O)S2)cc1` (stereo unspecified) the Potency was inconclusive: 20 µM [activator, single point].
In the case of `CC1CCc2c(nc3ncnn3c2NCCc2ccccc2F)C1` (stereo unspecified), the Potency is reported as active: 3.98 µM.
With `CC(C)N(Cc1ccccc1)C(=O)c1nc(-c2ccc(Cl)cc2)n2c1CCCCC2` the Potency was “inactive”.
For `COc1ccc(NC(=O)c2cc3c(-c4ccccc4F)nn(C)c3s2)c(OC)c1`, the Potency was inconclusive: 39.8 µM [inhibitor, partial curve].
For `CCOC(=O)c1c(C)[nH]c2c1cc(O)c1ccccc12`, the Potency was active: 15.7 µM.
